According to the supplement of paper PMC10338343:
± gives the standard deviation. Over roughly 6,600 sequences, “pre-steady-state target cleavage rate” has its median near 0.07; the highest 2% begin near 0.72. The list shows a part of the results, in another mix than the full data.

Each sequence was assayed on MIWI (PIWIL1) piRISC loaded with Kctd7 piRNA (30 nt) (assay: pre-steady-state target cleavage rate (min^-1); MIWI and MILI are mouse PIWI proteins and EfPiwi is from a freshwater sponge; tags in brackets are library labels; higher = faster piRNA-guided slicing of the target). Details: guide: Kctd7 piRNA 5'p-UGUUAAUCUCUCAGAGAAGGUGACAGUGAU; auxiliary factor: 500 nM mouse GTSF1.
In short: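 With or without 500 nM GTSF1 partner protein, 1 nM active affinity-purified piRISC carrying one synthetic guide was mixed with 0.1 nM transcribed, DNA-blocked target RNA library in HEPES–potassium acetate buffer at 33 °C for 0–8 or 0–960 min. Uncleaved targets were sequenced and normalised to depth and to weakly complementary targets, three trials were pooled, and k3 was capped at 0.0001 min^-1. The pre-steady-state cleavage rate came from a burst-and-steady-state fit.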

In order of falling “pre-steady-state target cleavage rate” value:
1. UAGAGUGUCAGCUUCUCUGAGAGAUUAACA  0.772 ± 0.044
2. AUCAGUGUCAGCUUCUCUGAGAGAUUAACA  0.734 ± 0.034
3. UAGUCUGUCACGUUCUCUGAGAGAUUAACA  0.692 ± 0.033
4. AUCAGUGUCACGUUCUCUGAGAGAUUAACA  0.676 ± 0.036
5. UAGAUCUGUCACCUUCUCUGAGAGAUUAACA  0.621 ± 0.03
6. UAGUCUGCUCACCUUCUCUGAGAGAUUAACA  0.607 ± 0.035
7. AUCAGUGUGACCUUCUCUGAGAGAUUAACA  0.562 ± 0.025
8. UAGACUCACACCUUCUCUGAGAGAUUAACA  0.529 ± 0.037
9. UAGUCUGUCACCUUCUCUGAAAGAUUAACA  0.474 ± 0.023
10. UAGUGUUUCACCUUCUCUGAGAGAUUAACA  0.45 ± 0.025
11. UUGACUGUCACCUUGUCUGAGAGAUUAACA  0.437 ± 0.069
12. UAGUCUGUGCACCUUCUCUGAGAGAUUAACA  0.417 ± 0.036
13. UACACUGUCACCUUCUCUGAGAGAUUAAACA  0.409 ± 0.038
14. UAGUCUGUCACCUUCUCUGAGAGAUUUAACA  0.39 ± 0.038
15. UUCACUGUCACCUUCUCUGAGAGAUUAUCA  0.353 ± 0.044
16. UAGACUGUCACCUUCUCUGAGAGAUUAGACA  0.315 ± 0.035
17. AUCUCUGUCACCUUCUCUGACAGAUUAACA  0.314 ± 0.025
18. UAGUGUGUCACCUUCUCUGAGAGAUUAAUCA  0.313 ± 0.042
19. UAGUGACUCACCAUCUCUGAGAGAUUAACA  0.306 ± 0.025
20. UUCACAUGUCACCUUCUCUGAGAGAUUAACA  0.299 ± 0.029
21. UAGUGUGACACCUUCUCUGAGAGAUAAACA  0.28 ± 0.039
22. UUCACUGUCACCUUCACUGACAGAUUAACA  0.273 ± 0.029
23. UAGACUCUCACCUUCUCUGAGAGAUUUACA  0.273 ± 0.04
24. UACACUGUCACCUUCUCUGAGAGACUAACA  0.264 ± 0.031
25. UACACUGUCACCUUCUAUGAGAGAUUAACA  0.253 ± 0.024
26. UAGUGAGUCAGCUUCUCUGAGAGAUUUACA  0.249 ± 0.032
27. UAGACUCUCACCUUGUCUGAGAGAUUAACA  0.237 ± 0.027
28. UAGUGUGUGACCUUCUCUGAGAGAAUAACA  0.211 ± 0.035
29. UAGACUGUCUCCUUCUCUGACAGAUUAACA  0.198 ± 0.023
30. UUCUCAGUCACCUUCUCUGAGAGAUUAACA  0.19 ± 0.032
31. UAGACUGUCACCUUCUCUGAGAGAUUACCA  0.178 ± 0.032
32. UAGUGACACACCUUCUCUGAGAGAUCAACA  0.173 ± 0.025
33. UAGACUGUCUCCUUGUCUGAGAGAUUAACA  0.162 ± 0.025
34. UAGUGACAGUCCUCCUCUGAGAGAUUAACA  0.152 ± 0.011
35. AUCACUGACACCUUCUCUGAGAGAUUAUGA  0.137 ± 0.032
36. UACACUGUCACCUUCUCAGAGACAUUAACA  0.122 ± 0.013
37. AUCACUGUCACGUUCUCUGAGAGAUUAAGA  0.118 ± 0.02
38. UACACUGUCACCUUGACUGAGAGAUUUUGA  0.117 ± 0.039
39. UAGUGUGUCACCUUCUCUGAGAGAUUAUGA  0.109 ± 0.023
40. AUCACUGUCACCUUCUCGAGAGAUUAACA  0.105 ± 0.019
41. UAGUGUGUCACCUUCUCUGAGAGAUUUUGA  0.105 ± 0.023
42. AUCACUGUCACCUUCUCUGUGAGAAUAACA  0.0993 ± 0.019
43. UACUGUGUCACCUUCUCUGAGAGAUUAUGA  0.0969 ± 0.015
44. UAGUCUGUCACCUUGUCUGAGAGAUUAAGA  0.0831 ± 0.026
45. UAGUGACAGACCUUCUCUGAGAGAGUUAACA  0.0818 ± 0.014
46. UACACUGUCACCUUCUCUGAGUGUUUAACA  0.0779 ± 0.018
47. AAGUCUGUCACCUUCUCUGAGAGAUUAUGA  0.0617 ± 0.016
48. UAGUGAGUCACCUUGUCUGAGAGAUAAACA  0.0582 ± 0.013
49. UAGUCUGUCACCUUCUCUCAGAGAUUAUCA  0.0565 ± 0.0084
50. UUCACUGUCACCAUCUCUGAGAGAUUAUGA  0.0549 ± 0.012
51. UACUCUGUCACCUUCUCUGAGUGAUUAACA  0.0543 ± 0.012
52. UACACUCACACCUUCUCUGAGAGAUUUUGA  0.0434 ± 0.014
53. AUCACUGAGACCUUCUCUGAGAGAUUUUGA  0.0423 ± 0.012
54. UUCACUGUCACCUUCUCUCAGAGAAUAACA  0.0324 ± 0.0074
55. UAGUGACAGACCUUCUCUGAGAGAUAUACA  0.0324 ± 0.0083
56. UAGUGACUCACGUUCUCAGAGAGAUUAACA  0.0234 ± 0.005
57. UAGUGACAGUCCUUCUCCGAGAGAUUAACA  0.0215 ± 0.0057
58. UACACUGUCACCUUCUCACAGAGAUUUUGA  0.0214 ± 0.011
59. UACACUGUCACCUUCUCUCUGAGAUUAACA  0.0197 ± 0.0062
60. AUCACUGUCACCUUCUGUCAGAGAUUAACA  0.0155 ± 0.0058
61. UAGUGACUCACCUUCUCUAGAGAUUAACA  0.0136 ± 0.0051
62. UAGUGAGUCACCUUCUCUGAGUCUUUAACA  0.0098 ± 0.005
63. AUCACUGUCACCUUCUCAGAGAGAUAUUGA  0.00956 ± 0.0054
64. UUCACUGUCACCAUCUCUGAGAGAUAUUGA  0.00824 ± 0.004
65. UAGUGACAGUGCUUGUCUGAGAGAUUAACA  0.008 ± 0.0037
66. UAGUGUGUCACCUUCUCUGAGUAGAUUAACA  0.00758 ± 0.004
67. UAGUGACAGACCUACUCUGAGAGAUUUACA  0.00746 ± 0.0032
68. UAGUGACUCACCUUCUCUGAGACAUUAAGA  0.00631 ± 0.0029
69. UACACUGUCACCUUCUCACAGAGAUUAUGA  0.00629 ± 0.0054
70. UAGUGACUCACCUUCUCUGAGAGAAAAUGA  0.00519 ± 0.0033
71. UAGUGAGUCACCUUCUCUGAAGAGAUUAACA  0.00466 ± 0.004
72. UAGUGUGUCACCUUCUCUCUCUCUAAUUGA [g13:g25:cont:t1A]  0.00462 ± 0.0042
